# The supplement of paper PMC10126150
# Values marked as one replicate rest on one cluster of the flow cell; about a third of the high ones do not repeat.
# System: ATP
# Assay: switch fluorescence ratio, 500 uM ATP over buffer (Cy3 cluster intensity, sum of 5 cycles each) (fold (ratio)); higher = stronger signal-on switching upon ATP binding; sequences stand for … in TCGTCGGCAGCGTCAGATGTGTATAAGAGACAGTTTTTTTTTTTTTTTTTTTTTTTTT…TC
# Details: aptamer strand: ATP DNA aptamer (quencher-CACCTGGGGGAGTATTGCGGAGGAAGG + anchor), 100 nM annealed; ATP concentration: 500 uM; one replicate
# Procedure, shortened: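 The quencher-labelled ATP aptamer, at 100 nM, was annealed to Cy3-labelled switching-strand clusters on a modified Illumina MiSeq flow-cell. The clusters were imaged in selection buffer, then after 15 min with 500 uM ATP at 22 °C, and this buffer/ATP cycle ran five times with NaOH stripping and re-annealing between runs. Per-cluster fluorescence ratios, summed target-cycle over summed buffer-cycle Cy3 intensity, were averaged per switch-domain sequence. Clusters outside 100-1000 RFU were excluded.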
# 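Also: ATP exposure 15 min at 22 °C before imaging.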
row,Sequence,switch fluorescence ratio
1,GTAATTCAGC,0.969
2,TTCATCGGTC,0.992
3,GTAATCGTCC,1.08
4,AACGGCCTT,1
5,GTGATTATCC,1.02
6,AGCCCAGCTG,1.04
7,TTCATAGTAG,0.951
8,CGAATACAGC,0.984
9,CACCGGCTGT,1.03
10,CACATAACCG,1.14
11,AAAGATGGCC,0.957
12,TTTCCCGTGT,3.92
13,TCCGGATCGC,1.32
14,GTAGACAAGG,0.983
15,GGGGGTTCTC,0.99
16,TGGCGGGAGG,0.992
17,CATCGCGAGT,1.09
18,TCGGGCATAC,6.13
19,GGTTTAGC,1.03
20,TCAAGGGAGG,0.992
21,CTAGCAGCGG,1.02
22,TTACAACTCG,1.02
23,TCATAGCATT,1.01

row,Sequence,switch fluorescence ratio
1,GAGCCATACG,1.87
2,GCACTTGCTG,1.01
3,GCGTACTATT,1.02
4,GGCCTGGGTG,2.22
5,CTGGTTGGCG,0.94
6,TCTGTCTTTG,0.986
7,ATAAGCGCCC,1.24
8,ACCCGGCTGG,1.01
9,GTGGTGGTGT,1.02
10,CAATAGACTT,0.976
11,TGTGTACCCA,0.989
12,AGGTATTGGC,1.12
13,AGATACGTTC,0.956
14,AAGTAACCCA,1.05
15,ACACGTCCAT,1.08
16,GCGATACCCG,1.31
17,GAATTTTGCC,1.05
18,TACTTGCTCA,1.02
19,CAACTGGCAC,1.13
20,TAATTACAT,1
21,AAGGAAACGA,1.06
22,AATCTCCGTG,1.09
23,CCCGCTAGTT,1.31

row,Sequence,switch fluorescence ratio
1,TTCTAGTTAT,0.998
2,GAGCACCGTA,1.02
3,TAAGTGGCAG,0.98
4,GATGTAAGCT,1.03
5,CGTACTCAAA,1.05
6,CATAATGCG,1.03
7,TTAGAGAGAC,1.12
8,CGCACTAAAA,1.87
9,ATGGCCGATC,0.982
10,CTATCTCCTC,1.04
11,AAAGGAGCGG,1
12,TCGAGCCGGT,0.999
13,ATCCATTAC,1.14
14,TCTGAGGCCT,0.982
15,CCAGGTGATC,3.88
16,GTTTTCCATG,1.96
17,CATCTATAAA,1.01
18,ATTCTATACT,1
19,GTTCATTCGC,1.53
20,CGACTCTCTC,1.06
21,AGCCGCATGT,1.79
22,AACTCAGGTT,1.01
23,TCTTGGTGTC,0.985

row,Sequence,switch fluorescence ratio
1,CAACTACGCT,1.37
2,CATTCCAATT,1.07
3,GCTGGGGTCT,1.01
4,CTGGAGTTAA,1.56
5,GAAGTTCTTA,0.981
6,CAAGGGCACG,1.04
7,CTTCGATGGC,1.1
8,TGTGTGCTGG,0.977
9,GGATTGATAG,1.03
10,GAGAAAACGG,1.04
11,CGTAGTAAAA,0.972
12,GTCGGATCGT,1.01
13,GGCAGCGGGC,0.977
14,TATGGGATCC,1
15,AAACGCCCCT,1.12
16,CTGTAAGCAG,1.04
17,AAGCCTACTC,1.22
18,TCCTTATGAA,0.994
19,TCGATAGGGT,1.01
20,GATATTCCCG,1.05
21,AGTCTTGTTC,0.985
22,GGTCGCACTT,0.994
23,TAGCTGGGCT,0.997

row,Sequence,switch fluorescence ratio
1,AACTAGGTCT,0.997
2,GGGACGGCGT,0.975
3,CTTGCAAACA,1.08
4,TCGTTAAGTA,0.929
5,ATCGGTTAAG,0.974
6,AACTTGCGAG,1
7,GCCTAGACTG,0.853
8,AAGGTATTCG,1.02
9,GGTGAACGGG,1.02
10,GAATCACTGA,1
11,CGAATGGAAG,0.971
12,AGTATATGAG,1.02
13,ATGGGATAGT,0.987
14,TCCCTATTGC,1.03
15,AAGAGGGTCA,1
16,ATTAAGGGA,1
17,AATTTGCC,1.01
18,CCGCGACCT,3.02
19,AAAGACTGGT,1.04
20,GGCCTGCAAA,1.01
21,ATTCAAGTGT,1.06
22,ACGGGCTCAC,1.12
23,CATCGCCGC,1.12

row,Sequence,switch fluorescence ratio
1,CGTTGAGTAA,1
2,AACGGAGTTG,0.978
3,TCCTACAGTT,1.02
4,AATACTGGCG,1.09
5,GGGCCAAAAG,0.983
6,ACTGATCTAT,0.992
7,CTAGGTAGAG,0.988
8,TTAGGTTACG,1.03
9,GTCATCGGTC,0.976
10,TGTACGCGGT,1
11,ACGTAACGCA,1.4
12,ACAGTGTTCG,0.988
13,CTGATCAAGA,0.967
14,AAGAGGGACA,1.04
15,CCTGGTTCAG,0.989
16,GGGGGCGCTC,1
17,GGTAGCAAAT,0.984
18,TGAGTTTTC,0.965
19,AGGATGTATG,0.946
20,CTATCATCCG,1.12
21,AGGTATGGGT,0.993
22,GTATCATGTT,0.968
23,GTCGGCTTAG,1

row,Sequence,switch fluorescence ratio
1,GGCGTGAACT,0.993
2,GAGCTCTCTT,0.998
3,TAGTCCTAAC,0.954
4,TATATAGGAC,1.03
5,CACATATGTG,1.05
6,GGTAGTAGGT,0.99
7,AAGAGGCTGC,0.982
8,TTAAAGCCGT,1.01
9,CGTAAAGTCG,1.11
10,GAGTATCCCT,0.992
11,CATCAGATGC,1.11
12,GCACATCGGC,1.03
13,TCAGACGGT,1.07
14,TTAATTCAAA,0.998
15,TCCGCGACAT,5.08
16,GAAGGCGTTG,0.967
17,GTAATCAAAA,0.962
18,TGGGCGAATA,1
19,TCCCTTCCAT,1.02
